Several values for one entry are separate records, joined by “and”; a condition that tells them apart may be missing. Equal values may be shown once. About 100 (0.036%) of roughly 280,000 compounds were called active. This list was built around the results that the source calls inconclusive (neither active nor inactive); the mix of calls is not that of the screen. The call rests on the fitted dose curve; in most records, active means well fitted inhibition curve with a large enough effect in the signal ratio, with a control signal flat (not every such curve was filed as active); inconclusive means small, poorly fitted or top-dose-only effect, or effect the other way, or a change in a side signal; inactive means no such curve, though single readings can be large or run the other way; the % refers to the signal ratio. Where the call is inconclusive, the potency comes from a doubtful curve fit. “Side channel” marks fits to a control or component signal instead of the main read-out.
The compounds below were run against Muscleblind-like protein 1 (Homo sapiens) (UniProt Q9NR56) (assay: qHTS Assay for Inhibitors of MBNL1-poly(CUG) RNA binding). Conditions: TR-FRET MBNL1-His/biotin-(CUG)12 binding, 665/545 ratio; activity change, negative = inhibition: at 57.5 µM (top of the series).
UniProt Q9NR56, sequence (Q9NR56 whole entry, looked up): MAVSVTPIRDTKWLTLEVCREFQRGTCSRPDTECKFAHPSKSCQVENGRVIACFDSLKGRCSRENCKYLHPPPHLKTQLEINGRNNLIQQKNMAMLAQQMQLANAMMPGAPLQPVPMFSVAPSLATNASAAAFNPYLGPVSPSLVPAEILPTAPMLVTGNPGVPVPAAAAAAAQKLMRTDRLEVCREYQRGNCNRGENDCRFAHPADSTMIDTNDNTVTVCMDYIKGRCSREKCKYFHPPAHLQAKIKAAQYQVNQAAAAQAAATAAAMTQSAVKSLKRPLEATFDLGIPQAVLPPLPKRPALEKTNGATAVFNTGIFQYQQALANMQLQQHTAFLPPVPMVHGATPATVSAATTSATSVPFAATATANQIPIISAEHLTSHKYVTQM
How it was run: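 TR-FRET readout: Ex 340 nm, 665/545 nm emission ratio, normalized to buffer-only (basal) and MBNL1-(CUG)12 controls. Complex of MBNL1-His with Biotin-(CUG)12, compounds 92 nM–58 uM, incubated 60 min at room temperature.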
On the % scale 0 is the no-effect control and ±100 the full control effect; potency means the concentration at half of the fitted maximal effect; tags describe the fitted curve by direction and shape or compound fluorescence and quenching.

Row | Compound | Potency | activity change, negative = inhibition
1 | Oc1ccc(NCc2cccc(OCc3ccc(F)cc3)c2)cc1 | inconclusive: 10 µM [quencher, side channel, partial curve] | 
2 | COCCC(=O)N1CCCC(C(=O)c2ccc3c4c(cccc24)CC3)C1 (centres undefined) | inconclusive: 20 µM [quencher, side channel, partial curve] | 
3 | O=C1C=C(Nc2ccc(O)cc2)C(=O)c2ccccc21 | inconclusive: 3.16 µM [quencher, side channel, partial curve] | 
4 | O=C1c2cccc3c(N4CCOCC4)c([N+](=O)[O-])cc(c23)C(=O)N1c1cccc2ccccc12 | inconclusive: 1.78 µM [quencher, side channel, full curve, poor fit] | 
5 | Cc1ccc2cc(CN(C(=O)c3ccco3)c3ccccc3)c(=O)[nH]c2c1 |  | inactive: 29.1%
6 | CC1(C)CCCN(C(=O)c2ccc3c(c2NCCO)C(=O)c2ccccc2C3=O)C1 | inconclusive: 3.16 µM [quencher, single point] | 
7 | Cc1nn(-c2ccccc2)c2nc(=O)n(-c3ccccc3)cc12 | inconclusive: 15.8 µM [quencher, side channel, partial curve] | 
8 | Cc1ccc(C(C[N+](=O)[O-])c2c(C)[nH]n(-c3ccccc3)c2=O)cc1 (centres undefined) | inconclusive: 39.8 µM [inhibitor, single point] | 
9 | c1ccc2c(NCCCN3CCOCC3)c3ccccc3nc2c1 | inconclusive: 12.6 µM [quencher, side channel, partial curve] | 
10 | COc1cccc2cc(C(C)=O)c(=O)oc12 | inconclusive: 12.6 µM [quencher, partial curve] | 
11 | Cc1ccc(CNC(C)c2ccccc2)cc1 (centres undefined) |  | inactive: -3.39%
12 | COc1ccc2[nH]c(O)c(N=O)c2c1 | inconclusive: 31.6 µM [quencher, side channel, single point] | 
13 | O=C(NCc1cccnc1)c1ccc(Cl)cc1[N+](=O)[O-] | inconclusive: 17.8 µM [quencher, side channel, partial curve, poor fit] | 
14 | CC(=O)NN1C(=O)/C(=C\c2ccccc2)SC1=S | inconclusive: 28.2 µM [quencher, partial curve] | 
15 | CC(Oc1ccc2c3c(c(=O)oc2c1)CCC3)C(=O)NCCN1CCOCC1 (centres undefined) | inconclusive: 39.8 µM [quencher, side channel, single point] | 
16 | O=[N+]([O-])c1ccc(N2CCCC2)nc1 | inconclusive: 12.6 µM [quencher, side channel, partial curve] | 
17 | Cn1cnnc1SCc1ccc(C(=O)N=Nc2c(O)n(C)c3ccccc23)cc1 | inconclusive: 7.94 µM [quencher, side channel, partial curve] | 
18 | CS(=O)(=O)c1ccc(-n2nnc3ccccc32)c([N+](=O)[O-])c1 | inconclusive: 6.31 µM [quencher, partial curve] | 
19 | O=C(NC1CCCCC1)c1cc([N+](=O)[O-])[nH]n1 | inconclusive: 7.94 µM [quencher, side channel, partial curve, poor fit] | 
20 | CC(CC1C(C#N)=C(N)OC2=C1C(=O)CCC2)c1ccccc1 (centres undefined) |  | inactive: -1.9%

Row | Compound | Potency | activity change, negative = inhibition
21 | CCN(CC)C(=O)COc1cc(C)cc2oc(=O)cc(-c3ccccc3)c12 | inconclusive: 15.8 µM [quencher, side channel, partial curve] | 
22 | CCOC(=O)C(=O)C1=C(N2CCOCC2)/C(=C\c2cccc([N+](=O)[O-])c2)CC1 | inconclusive: 12.6 µM [quencher, side channel, partial curve] | 
23 | COc1ccccc1NC(=S)N(Cc1ccccc1)Cc1cccnc1 |  | inactive: -8.18%
24 | NS(=O)(=O)c1ccc(CCNc2ncnc3sccc23)cc1 |  | inactive: 0.963%
25 | O=C(CSc1nc2c(c(=O)n1-c1ccccc1)SCC2)NCC1CCCO1 (centres undefined) |  | inactive: 15.1%
26 | O=C(Nc1ccc(Cl)cc1Cl)c1ccc(-c2ccccc2)cc1 | inconclusive: 35.5 µM [fluorescent, side channel, single point] | 
27 | CC(Oc1ccc(F)cc1)c1ccnc2nc(/N=C/N(C)C)nn12 (centres undefined) |  | inactive: 0.578%
28 | COCCCn1c(=O)c2sccc2n(Cc2ccc(C)cc2)c1=O |  | inactive: 2.39%
29 | Cc1ccc2n(n1)c(=O)c(Cc1ccccc1)c([O-])[n+]2-c1ccccc1 | inconclusive: 15.8 µM [quencher, side channel, partial curve] | 
30 | Cc1cc([N+](=O)[O-])nn1CC(=O)NNC(=S)Nc1ccc([N+](=O)[O-])cc1 | inconclusive: 22.4 µM [quencher, side channel, partial curve] | 
31 | COc1ccc(S(=O)(=O)N2CCN(c3ccccn3)CC2)cc1[N+](=O)[O-] | inconclusive: 35.5 µM [quencher, side channel, single point] | 
32 | COc1ccc(N/C=C/C(=O)c2ccc3c(c2)OCO3)cc1OC | inconclusive: 11.2 µM [quencher, side channel, partial curve] | 
33 | CC(C)OCCCN1C=C2C(=O)C(C)(OC(=O)CCc3ccccc3)C(=O)C=C2C=C1c1ccc(C#N)cc1 (centres undefined) | inconclusive: 25.1 µM [quencher, side channel, partial curve] | 
34 | O=C1c2ccccc2C(=O)N1c1ccc(Cc2ccncc2)cc1 | inconclusive: 20 µM [quencher, partial curve] | 
35 | COc1cc2c(cc1OC)C(c1ccco1)CC(=O)N2 (centres undefined) | inconclusive: 7.08 µM [quencher, side channel, single point] | 
36 | CCOC(=O)c1cc(C(=O)OCC)c2cc(Br)ccc2n1 | inconclusive: 10 µM [quencher, side channel, partial curve] | 
37 | COc1ccc(N(Cc2ccccc2)C(=O)c2ccccc2[N+](=O)[O-])cc1 | inconclusive: 20 µM [quencher, side channel, partial curve] | 
38 | Cc1ccc(NC(=O)CNS(=O)(=O)c2ccc(F)cc2)cc1C | inconclusive: 3.55 µM [quencher, side channel, single point] | 
39 | COc1cc([N+](=O)[O-])cc(/C=C2/SC(=S)N(Cc3ccccc3)C2=O)c1O |  | inactive: 36.5%
40 | O=c1c2ccccc2nc(SCc2nnc(-c3ccccc3Br)o2)n1-c1ccccc1 | inconclusive: 39.8 µM [quencher, side channel, single point] | 

Row | Compound | Potency | activity change, negative = inhibition
41 | CS(=O)(=O)N1N=C(c2ccccc2)CC1c1ccc2c(c1)OCO2 (centres undefined) |  | inactive: -14.4%
42 | Cc1onc(C(=O)Nc2ccccc2C(F)(F)F)c1[N+](=O)[O-] | inconclusive: 11.2 µM [quencher, side channel, partial curve] | 
43 | O=C(N/N=C/c1ccncc1)c1ccc(COc2cccc3cccnc23)cc1 | inconclusive: 14.1 µM [quencher, side channel, partial curve] | 
44 | Cc1ccc(S(=O)(=O)/C(C#N)=C/c2c(N3CC(C)OC(C)C3)nc3ccccn3c2=O)cc1 (centres undefined) | inconclusive: 22.4 µM [quencher, side channel, partial curve] | 
45 | O=C1NC(=O)C(c2ccccc2[N+](=O)[O-])=C1Nc1ccc(O)c(Cl)c1 | inconclusive: 22.4 µM [quencher, side channel, partial curve] and inconclusive: 15.8 µM [quencher, side channel, partial curve] | 
46 | O=C(CSc1nc2ncccc2[nH]1)c1cccc([N+](=O)[O-])c1 | inconclusive: 2 µM [quencher, side channel, partial curve] | 
47 | COc1ccc(CN2C(=O)c3cccnc3C2Nc2cc(Cl)ccc2OC)cc1 (centres undefined) | inconclusive: 126 µM [inhibitor, partial curve] | 
48 | O=C(NCC1CCCO1)c1cccc(Oc2ccc([N+](=O)[O-])cc2Cl)c1 (centres undefined) | inconclusive: 5.01 µM [quencher, side channel, partial curve] | 
49 | O=C(c1cc(-c2ccncc2)nc2ccc(Br)cc12)N1CCN(Cc2ccc3c(c2)OCO3)CC1 |  | inactive: 32.1%
50 | COc1cccc(CN(C(=O)c2ccc([N+](=O)[O-])cc2)C2CCS(=O)(=O)C2)c1 (centres undefined) | inconclusive: 22.4 µM [quencher, side channel, partial curve] | 
51 | O=C(C1CCCN1S(=O)(=O)c1cccc2nsnc12)N1CCN(c2ccc(F)cc2)CC1 (centres undefined) | inconclusive: 12.6 µM [quencher, side channel, partial curve] | 
52 | Cc1ccc(/C=C/C(=O)Nc2nnc(C)s2)o1 | inconclusive: 3.98 µM [quencher, side channel, partial curve] | 
53 | CC(=O)NC1=NC(=O)/C(=C/N2CCCCC2)S1 | inconclusive: 17.8 µM [quencher, side channel, partial curve] | 
54 | Cc1ccc(-c2cn3cccnc3n2)cc1NC(=O)c1ccc(Br)o1 | inconclusive: 25.1 µM [quencher, side channel, partial curve] | 
55 | O=[N+]([O-])c1ccc(N2CCN(C(=S)c3cccc([N+](=O)[O-])c3)CC2)cc1 |  | inactive: 14.9%
56 | Cc1cccc(N2CCN(C(=O)CCS(=O)(=O)c3ccc4c(c3)NC(=O)CO4)CC2)c1C |  | inactive: 4.19%
57 | COCCN1C=C2C(=O)C(C)(OC(=O)C3CCCC3)C(=O)C(c3ccccc3)=C2C=C1CCCC(=O)OC (centres undefined) | inconclusive: 20 µM [quencher, side channel, partial curve] | 
58 | O=C(O)c1cc([N+](=O)[O-])ccc1N1CCC(Cc2ccccc2)CC1 | inconclusive: 22.4 µM [activator, single point] | 
59 | COc1cc(/C=C/C(=O)OCC(=O)NC(=O)NC(C)C)ccc1O | inconclusive: 35.5 µM [quencher, side channel, single point] | 
